# The other results are listed elsewhere or left out.
# Tested on: T1, C. trachomatis L2/434/Bu expressing GFP (CTL2-GFP)
# T1 construct: L2/434/Bu GFP intracellular growth in HeLa cells
# Parameters: species or system HeLa; C. trachomatis total inclusion area by high-content imaging, normalised to DMSO
# Conditions: total inclusion area; 28.5 h, 10 µM; inhibitor
# Procedure, shortened: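 After bulk GFP and resorufin fluorescence reads, cells were fixed, stained with Hoechst and imaged by high-content microscopy. Inclusion area and number (GFP) stood in for chlamydial growth, nuclei count (Hoechst) for host cell viability. MICs were derived as for the bulk readout.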
row,Structure (SMILES),% of control remaining
1,COC(=O)c1ccc(Cn2cc(NC(=O)NCCc3cccs3)cn2)o1 [CBK043825],88.6524
2,CCCNC(=O)N1CCC(n2c(C)nc3cccnc32)CC1 [CBK282292],92.1778
3,O=C(CN1CCC(O)(Cn2cnc3ccccc32)CC1)c1ccc(-c2ccccc2)cc1 [CBK286306],115.264
4,S=C(NCc1ccc(-n2cccn2)cc1)NCC1CCCO1 (stereo not shown) [CBK267083],95.1515
5,O=S(=O)(Nc1ccc(C(O)(C(F)(F)F)C(F)(F)F)cc1)c1cccc2cccnc12 [CBK062092],86.1885
6,COc1ccc2[nH]cc(C3CCN(Cc4cc(C)no4)CC3)c2c1 [CBK303996],69.493
7,Cc1cc(O)nc(SCCCSc2ccccc2)n1 [CBK267415],98.5244
8,O=C(CCSc1ccc([N+](=O)[O-])cc1Cl)Nc1ccc(Br)c2cccnc12 [CBK266407],71.5105
9,CC(=O)Nc1cccc(C(=O)N2CCN(CC3CCCO3)CC2)c1 (stereo not shown) [CBK305158],47.8637
10,COc1ccc2[nH]c3c(c2c1)CN(C(=O)CCC1CCCO1)CC3 (stereo not shown) [CBK281530],95.7629
11,Cc1cc(C)c2c(C)nn(-c3ccc(C(=O)O)cc3)c2n1 [CBK267480],91.5142
12,c1ccc(N2CCN(c3nc4cc5c(cc4s3)OCO5)CC2)cc1 [CBK287495],97.8553
13,O=C(Nc1ccc(Sc2ccc([N+](=O)[O-])cc2)cc1)c1ccc2c(c1)C(=O)N(c1ccccc1-c1ccccc1)C2=O [CBK261340],95.4867
14,O=C(Nc1ccccc1Cl)N1CCN(c2ccc(F)cc2)CC1 [CBK117849],70.3035
15,NC(=O)C[N+]1(CC#CC(O)(c2ccccc2)c2ccccc2)CCCC1 [CBK262703I],107.629
16,CC(=O)c1ccc(-c2nc(NC(=O)c3ccccn3)cnc2-c2cccc(OC(F)(F)F)c2)s1 [CBK036929],111.864
17,CC(C)c1ccc(C(=O)NC2CCN(CC(F)(F)F)C2=O)nc1 (stereo not shown) [CBK304089],50.2301
18,COc1ccc([N+](=O)[O-])cc1NC(=O)CSc1nnnn1C [CBK268950],116.376
19,O=C(O)C1CCCN(C(=O)NCc2c(Cl)cccc2Cl)C1 (stereo not shown) [CBK161362],79.3406
20,OCCCn1c(-c2ccc(Cl)cc2)cn2c3ccccc3nc12 [CBK262900],99.9304
21,COC(=O)c1c(NC(=O)CC2Nc3ccccc3NC2=O)sc2c1CCC(C(C)(C)C)C2 (stereo not shown) [CBK265614],59.9092
22,COc1ccc(Oc2nccnc2N2CCN(CC3CCCCC3)CC2)cc1OC [CBK083064T],101.123
23,Cc1nn(Cc2ccc(F)cc2)c(C)c1NC(=O)c1cnn2c(C(F)(F)F)cc(-c3ccccc3)nc12 [CBK268231],96.4832
24,CCN1CCC[C@@H]1CNc1cc(NS(=O)(=O)c2cccs2)cc2ccoc12 [CBK067904C],88.1227
25,CCOC(=O)CN1CCC(Oc2nccnc2OCc2ccc(Cl)c(Cl)c2)CC1 [CBK083113T],98.6062

row,Structure (SMILES),% of control remaining
1,Brc1ccc(/C=N\c2ccc3c(c2)ncn3CCn2cnc3cc(/N=C/c4ccc(Br)cc4)ccc32)cc1 [CBK262285],105.548
2,O=C(CSc1nnc(SCc2cccc3ccccc23)s1)Nc1ccc(F)c(Cl)c1 [CBK267574],87.7505
3,CCc1[nH]nc2c1C(C1C=CCCC1)C(C#N)=C(N)O2 (stereo not shown) [CBK270236],74.6048
4,CCN(Cc1nccn1CC)[C@H]1CCO[C@@H](c2ccccc2-c2ccc(OC)cc2)C1 [CBK285852],81.8176
5,O=C(O)c1cccc(N2C(=O)C3C4C=CC(CO)(O4)C3C2=O)c1 (stereo not shown) [CBK287066],99.0197
6,CC(C)(C)OC(=O)CN1C(=O)N[C@@H]2CCCC[C@@H]21 [CBK003423],96.9387
7,O=C(NCCOc1ccccc1)c1nn(-c2ncccn2)c2ccccc12 [CBK048494],120.482
8,CN1C[C@@H](NC(=O)c2ccc(C#N)cc2)C[C@H]1c1nc(-c2ccc(F)cc2)no1 [CBK288865],79.2571
9,Cc1ccc(Nc2ncc(C(=O)NCCCN3CCN(c4cccc(Cl)c4)CC3)c3ccccc23)cc1Cl [CBK291251],25.9041
10,O=c1[nH]c2cc(Cl)cc(Cl)c2o1 [CBK015711],88.1156
11,O=C(Cc1csc(-c2ccsc2)n1)Nc1nc2c(s1)CCC2 [CBK297935],84.5879
12,CCCCCCn1nc(C(=O)NCC(=O)O)c2ccccc2c1=O [CBK297491],107.523
13,COc1ccc(CCC(=O)N2CCCC(c3nccnc3-c3cccc(C)c3)C2)cc1 (stereo not shown) [CBK286510],111.377
14,CCC(NS(=O)(=O)c1cnc2c(c1)c(C)nn2C)C(O)C(F)(F)F (stereo not shown) [CBK306264],35.2497
15,CC(=O)N1Cc2ccccc2OC2(CCN(C(=O)C3CC3)CC2)C1 [CBK285037],103.23
16,CCC(Sc1ncccc1C(=O)O)C(=O)O (stereo not shown) [CBK263216],35.8278
17,COc1ccc(CN2CCCN(c3ccnc(OCC4COc5ccccc5O4)n3)CC2)cc1 (stereo not shown) [CBK083234T],76.9791
18,O=C(COc1ccc(S(=O)(=O)N2CCCC2)cc1Cl)NCc1ccccn1 [CBK268412],93.5072
19,Cc1cc(C)nc(Nc2n[nH]c(Cc3ccccc3)n2)n1 [CBK267023],113.221
20,Cc1nn(C)c(C)c1CN(C(=O)C(C)Oc1ccccc1F)C1CC1 (stereo not shown) [CBK281480],75.668
21,COc1ccc(N2C(=O)c3ccc(C(=O)OCC(=O)c4ccc(-c5ccccc5)cc4)cc3C2=O)cc1 [CBK263532],108.814
22,CC(C)(C)c1ccc(S(=O)(=O)N2CCSC2)cc1 [CBK095672],90.4471
23,NC(=O)c1c(NC(=O)COc2ccc3ccccc3c2)sc2c1CCCCC2 [CBK265380],104.581
24,O=C(N/N=C/c1ccc(O)c(I)c1)c1ccncc1 [CBK262144],101.922

# Source: paper PMC12040169 (PLOS Biology, 2025)
